Assay results reported in PubChem BioAssay AID894 (National Center for Advancing Translational Sciences (NCATS), 2007).
The whole screen tested about 150,000 compounds, of which about 6,500 (4.3%) were called active. Inconclusive means that the source gave no clear call. Such entries were picked first, then a sample of the others. Calls come from the whole dose curve; as a rule, active = well fitted inhibition curve with a large enough effect (not every such curve was filed as active); inconclusive = small, poorly fitted or top-dose-only effect, or another doubt; inactive = no such curve, though single readings can be large or run the other way. Potencies of inconclusive entries are left out as doubtful fits.

Molecular target: 15-hydroxyprostaglandin dehydrogenase [NAD(+)] (Homo sapiens) (UniProt P15428)
Assay: qHTS Assay for Inhibitors of HPGD (15-Hydroxyprostaglandin Dehydrogenase)
Settings: purified HPGD, NADH fluorescence kinetic, PGE2 substrate; activity change, negative = inhibition: stronger effect = lower value
In short: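 NADH formation kinetics: reaction with 30 uM PGE2 and 1 mM NAD+ (final), 20 nM enzyme, Tris-HCl pH 8 with Tween 20, after 15 min compound preincubation at room temperature. Fluorescence change, last versus first of five reads.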
% is set by controls: 0 for no effect and ±100 for the full control effect; potency is the fitted concentration of half-maximal effect; tags give direction and shape of the fitted curve.

Sequence of UniProt P15428 (P15428 whole entry, looked up): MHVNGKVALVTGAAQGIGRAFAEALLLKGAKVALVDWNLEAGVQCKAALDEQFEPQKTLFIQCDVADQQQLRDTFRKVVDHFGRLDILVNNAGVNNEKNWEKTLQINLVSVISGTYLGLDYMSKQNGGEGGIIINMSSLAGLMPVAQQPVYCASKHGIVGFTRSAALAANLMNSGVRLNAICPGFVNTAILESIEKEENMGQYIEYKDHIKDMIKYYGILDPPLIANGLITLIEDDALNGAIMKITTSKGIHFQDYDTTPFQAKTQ

| SMILES | Potency | activity change, negative = inhibition |
| --- | --- | --- |
| COc1ccccc1NC(=O)c1cc2ccccc2o/c1=N\O | active: 22.4 µM |  |
| COc1ccc(NC(=O)NC(C)(C(F)(F)F)C(F)(F)F)cc1 |  | inactive: -1.76% |
| Cc1cc2cc(CN(C(=O)C3CC3)C3CCCC3)c3nnnn3c2cc1C |  | inactive: -17.6% |
| COc1ccc(-c2nn3c(-c4ccccc4)nnc3s2)cc1 | inconclusive [inhibitor, partial curve] |  |
| COc1ccccc1CN1CCCC2(CCN(C(=O)c3ccncc3)CC2)C1 |  | inactive: -3.68% |
| CC(C)c1ccc(/C=C/C(=O)N2CCc3ccccc3C2)cc1 | inconclusive [inhibitor, partial curve, poor fit] |  |
| CCN(CC)c1ccc(/C=N/Nc2ccccc2)c(O)c1 | active: 28.2 µM |  |
| CC1(C)CC(=O)C2=C(C1)OC(N)=C([N+](=O)[O-])C2c1cccs1 (centres undefined) | inconclusive [inhibitor, single point] |  |
| CCCOc1ccc(C(=O)N/N=C/c2ccc(-c3ccc(S(=O)(=O)Nc4ncccn4)cc3)o2)cc1 | inconclusive [inhibitor, partial curve] |  |
| CCCCOc1ccc(C(=O)N2CCC(C)CC2)cc1 | active: 1 µM |  |
| O=C(Nc1ccccc1)c1ccc(CSc2ncccn2)cc1 | inconclusive [inhibitor, partial curve] |  |
| CS(=O)c1ccccc1-c1nc(-c2cc(C(F)(F)F)cc(C(F)(F)F)c2)no1 (centres undefined) | inconclusive [inhibitor, partial curve] |  |
| COc1cccc(Cn2c(=O)c(-c3ccc(F)c(F)c3)nc3cncnc32)c1 |  | inactive: -20.8% |
| COCc1[nH]nc2c1C(c1cccc(OC)c1)C(C#N)=C(N)O2 (centres undefined) |  | inactive: -22.5% |
| COc1cccc(C2CC(C(F)(F)F)n3ncc(C(=O)NCC4CCCO4)c3N2)c1 (centres undefined) | active: 14.1 µM |  |
| Cn1c(=O)c2nc(Cl)c(-c3ccccc3)nc2n(C)c1=O | inconclusive [inhibitor, partial curve] |  |
| Cc1cc(=O)oc2cc(O)c(O)cc12 | inconclusive [inhibitor, partial curve] |  |
| O=C(c1ccc(Cl)s1)N1CCN(c2ccccc2)CC1 |  | inactive: -19.1% |
| COc1ccc(CCNc2oc(COc3ccccc3F)nc2C#N)cc1 | active: 17.8 µM |  |
| CCc1ccc(C2CC(=O)N3CN(c4ccccc4)CSC3=C2C#N)cc1 (centres undefined) | active: 7.94 µM |  |
| CCCC[C@@H]1C[C@H]1C(NC(=O)c1cccs1)c1ccc(-c2ccccc2)cc1 (some centres undefined) |  | inactive: -7.26% |
| CCCCSc1ccc(NC(=O)c2cccnc2)cc1 |  | inactive: -8.94% |
| COc1ccc(N2C(=O)CC(Nc3ccc(C)cc3)C2=O)cc1 (centres undefined) |  | inactive: -10.9% |
| O=C(NCC1CCCO1)c1ccc(COc2ccccc2Br)cc1 (centres undefined) | active: 3.98 µM |  |
| COCc1nnc(NC(=O)c2sc3ccccc3c2Cl)s1 | active: 31.6 µM |  |

| SMILES | Potency | activity change, negative = inhibition |
| --- | --- | --- |
| CC1CCCC(NC2CCCCNC2=O)C1 (centres undefined) |  | inactive: -5.2% |
| C=CCNc1nnc(Cl)c2ccccc12 | inconclusive [inhibitor, partial curve] |  |
| O=c1c(-c2nnc(SCc3ccc(Cl)cc3)o2)cccn1Cc1ccccc1 | inconclusive [inhibitor, partial curve] |  |
| c1cncc(-c2nnc(-c3ccco3)o2)c1 | inconclusive [inhibitor, partial curve] |  |
| CC1CCCN(c2nc3c(c(=O)[nH]c(=O)n3C)n2Cc2ccccc2Cl)C1 (centres undefined) |  | inactive: -26.2% |
| COc1ncc2nc(-c3ccc(F)cc3)c(=O)n(C[C@H]3CCCO3)c2n1 | inconclusive [inhibitor, partial curve] |  |
| Nc1nc2n(n1)C(c1ccco1)CC(c1ccc(Cl)c(Cl)c1)N2 (centres undefined) | inconclusive [inhibitor, partial curve] |  |
| COc1cc(NC(=O)c2cc3nc(-c4ccccc4)cc(-c4ccccc4)n3n2)cc(OC)c1OC | inconclusive [inhibitor, single point] |  |
| CCCc1nnc2n1N=C(c1ccc(OC)c(OC)c1)CS2 |  | inactive: -0.778% |
| O=c1cc(CSc2nc3ccccc3[nH]2)c2ccccc2[nH]1 | active: 7.94 µM |  |
| COc1ccc(C(=O)Nc2ccc3c(c2)nc2n3CCSC2)cc1 | inconclusive [inhibitor, partial curve, poor fit] |  |
| Cc1c(Cl)cccc1NC(=O)NC1CCCCC1 |  | inactive: -1.33% |
| COc1ccc(-c2cc(C(F)(F)F)c3c(n2)sc2c(O)cc(=O)[nH]c23)c(OC)c1 | inconclusive [inhibitor, partial curve] |  |
| CN(C(=O)c1ccccc1Cl)C1CCCCC1 | active: 28.2 µM |  |
| O=C(O)CCc1ccc(-c2cccs2)n1CCC(=O)O | inconclusive [inhibitor, partial curve] |  |
| CCn1c(-c2cccs2)nc2ccccc21 | inconclusive [inhibitor, partial curve] |  |
| CCn1ncc(C2=NOC(C(=O)NCC(C)C)C2)c1C (centres undefined) |  | inactive: -13.1% |
| COC1=C(Nc2ccc(OC)cc2)C(=O)c2ccccc2C1=O | active: 15.8 µM |  |
| CCOC(=O)c1sc2nc(CC(=O)OC)nc(NCCN(CC)CC)c2c1C | inconclusive [inhibitor, partial curve, poor fit] |  |
| O=C(CSc1ncnc2c1oc1ccccc12)N1CCCc2ccccc21 |  | inactive: -18.9% |
| Cn1c(N2CCN(C(=O)NC34CC5CC(CC(C5)C3)C4)CC2)nc2ccccc21 | inconclusive [inhibitor, single point] |  |
| CN1C(=O)C(O)(CC(=O)c2ccc(F)cc2)c2cc(Br)ccc21 (centres undefined) | inconclusive [inhibitor, single point] |  |
| CN(C)CC/C=C1\c2cc(F)ccc2CSc2ccccc21 |  | inactive: -6.28% |
| COc1cccc(/C=N/NC(=O)c2nc(-c3ccccc3)cc(-c3ccccc3)n2)c1 | inconclusive [inhibitor, partial curve] |  |
